Whole data set: some 33,000 sequences, median “E-score (-0.5 to 0.5)” near -0.035, cut for the highest 2% near 0.35. Some of the results follow.
molecular target: T1, Pdr3 (UniProt P33200); test: PBM E-score (8-mer binding enrichment) (E-score (-0.5 to 0.5)); higher = stronger / more preferred TF binding; most listed sequences are background and not binding sites; details: protein concentration: 200 nM; construct: GST-full length
T1 sequence: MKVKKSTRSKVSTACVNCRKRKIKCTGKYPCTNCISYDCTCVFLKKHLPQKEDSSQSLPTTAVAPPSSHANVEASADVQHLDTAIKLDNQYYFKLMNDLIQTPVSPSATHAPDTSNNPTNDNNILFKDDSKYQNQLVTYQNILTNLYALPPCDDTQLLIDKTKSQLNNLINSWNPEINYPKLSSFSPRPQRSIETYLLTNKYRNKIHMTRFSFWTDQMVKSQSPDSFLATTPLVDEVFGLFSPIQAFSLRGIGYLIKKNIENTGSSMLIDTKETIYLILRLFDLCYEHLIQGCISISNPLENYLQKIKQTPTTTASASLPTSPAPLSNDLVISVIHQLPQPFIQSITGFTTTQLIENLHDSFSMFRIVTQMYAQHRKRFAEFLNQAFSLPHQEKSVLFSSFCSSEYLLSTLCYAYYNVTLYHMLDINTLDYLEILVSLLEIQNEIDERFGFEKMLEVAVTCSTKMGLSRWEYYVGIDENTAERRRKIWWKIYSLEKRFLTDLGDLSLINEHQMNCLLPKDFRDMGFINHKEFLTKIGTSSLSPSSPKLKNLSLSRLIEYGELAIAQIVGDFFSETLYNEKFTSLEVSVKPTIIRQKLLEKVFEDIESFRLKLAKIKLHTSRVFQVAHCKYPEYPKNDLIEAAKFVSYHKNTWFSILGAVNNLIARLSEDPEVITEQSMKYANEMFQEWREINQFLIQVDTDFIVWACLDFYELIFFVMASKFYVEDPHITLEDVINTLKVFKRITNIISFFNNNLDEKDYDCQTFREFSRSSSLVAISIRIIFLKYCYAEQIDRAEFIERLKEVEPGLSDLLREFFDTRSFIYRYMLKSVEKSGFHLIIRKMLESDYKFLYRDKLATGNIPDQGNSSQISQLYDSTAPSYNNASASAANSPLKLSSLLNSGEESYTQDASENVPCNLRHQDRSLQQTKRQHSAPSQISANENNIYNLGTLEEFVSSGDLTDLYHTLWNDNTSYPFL
How it was run: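 Full-length yeast transcription factors or their DNA-binding domains, GST-tagged and expressed with PURExpress, were applied at about 100-200 nM to universal all-10-mer Agilent arrays. These arrays had been made double-stranded by primer extension on fresh or once-stripped slides. Detection used fluorescent anti-GST, normalisation used masliner, and E-scores for ungapped eight-base words pooled with reverse complements came from the Universal PBM Analysis Suite.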

Sequence	PBM E-score
ATCGCCAA	-0.207
ACCATGCG	0.0439
GGGTCGCA	0.0855
AATAAAGT	0.00316
AGAGAATG	-0.141
TCTATCAA	-0.198
GCTATGCC	-0.126
CCCTGCTA	-0.0619
AGTCATGG	-0.234
ACTACCAG	-0.173
CGTGTGGC	-0.155
CTCACACC	-0.125
AAACTCCA	-0.153
ATACAATC	-0.0612
AGTGCAGA	-0.0503
AACAAGTT	0.119
ACTCCTCA	-0.254
AGGTCGTA	-0.175
AAAACCGC	0.0662
AGTACAGC	-0.141
AGATTTGC	0.101
ATCCATTA	-0.0375

Sequence	PBM E-score
CGCATCCG	0.29
AACGCATG	-0.033
ATACATCG	0.0886
ACGACTAG	-0.175
ACGGGGCG	0.183
CACGACGC	-0.0958
CATGGCGC	0.0836
CGCCCGCC	0.239
ACCATTCT	-0.114
CACCCTGA	-0.111
GACAGGAA	0.0827
GATGGCCA	-0.03
ACTCCCAC	-0.107
GTGCGTTA	0.0268
TGATACAA	-0.0803
AACGAGCT	-0.0544
AAACCTTC	-0.0895
AGTGGAAG	-0.185
ATGAACTG	0.126
CCCGACTC	0.154
GATTGTTA	-0.214
CCAGTAGC	0.133

Sequence	PBM E-score
CCTCAGCG	0.121
TAACTACA	-0.123
CAAAACAC	-0.0205
CACCCTCC	0.0843
CGATCCGA	0.326
CTGCGCAA	0.125
CTGTATGA	0.0466
ACGTAGAG	-0.236
ATGCCTAG	-0.137
CAACCTCC	0.112
TAACGCCA	-0.15
TGATTACA	-0.121
AGCTACTG	0.0942
GTCAACGA	-0.18
CGACCTGC	0.0521
CAGTGTGA	-0.0735
CGATGTGC	0.152
AGTATCCA	0.0282
ATCAAGAA	-0.0683
AAGATGAA	-0.0397
ACCCCTAT	-0.0493
CGTTTTCC	0.0681
